Results reported in the supplement of paper PMC12217912.
The other results are listed elsewhere or left out. Sequences were assembled here from the parent chain. Inactive controls read about 0.05.

B1: TEV protease; numbered along this chain (parent)
chain: MGESLFKGPRDYNPISSSICHLTNESDGHTTSLYGIGFGPFIITNKHLFRRNNGTLVVQSLHGVFKVKDTTTLQQHLVDGRDMIIIRMPKDFPPFPQKLKFREPQREERICLVTTNFQTKSMSSMVSDTSCTFPSGDGIFWKHWIQTKDGQCGSPLVSTRDGFIVGIHSASNFTNTNNYFTSVPKNFMELLTNQEAQQWVSGWRLNADSVLWGGHKVFMVKPEEPFQPVKEATQL

Variants of: B1
Assay: raw area under fraction-flipped curve 0-4 h after induction (AUC4h, not background-subtracted), DNA-recorder readout of cleavage of the substrate (dimensionless); higher = more cleavage of the substrate by the protease variant
Conditions: temperature: 34 °C; time window: 0-4 h after rhamnose induction
Method: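 In vivo DNA recorder in E. coli TOP10(DE3) ΔrhaA at 34 °C. Each TEVp single-site mutant (parent TEVp 0) is paired with a single-site variant of the 7-mer TEVs (canonical ENLYFQ|S). The substrate sits between flexible linkers in a Bxb1-sfGFP-TEVs-SsrA fusion, so cleavage stabilises Bxb1 and speeds flipping of a recombination array, read by NGS. The value is the raw area under the fraction-flipped curve over 0-4 h after rhamnose induction (AUC4h), with ≥20 reads per time point. It is not background-subtracted; inactive controls average about 0.047.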
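Further: Bxb1 expression induced with 0.2% (w/v) L-rhamnose at OD600 near 0.5, cultures sampled hourly, flipped fraction per protease–substrate barcode pair counted by paired-end Illumina sequencing.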

| Variant | area with substrate ENLYFAS | area with substrate ENLYFCS | area with substrate ENLYFDS | area with substrate ENLYFES | area with substrate ENLYFFS | area with substrate ENLYFHS | area with substrate ENLYFIS | area with substrate ENLYFKS | area with substrate ENLYFMS | area with substrate ENLYFNS |
| --- | --- | --- | --- | --- | --- | --- | --- | --- | --- | --- |
| T115Q | 0.0475 | 0.0577 | 0.0528 | 0.0629 | 0.0691 | 0.0591 | 0.0434 | 0.0648 | 0.0663 | 0.0482 |
| T115R | 0.0382 |  | 0.0894 | 0.0694 | 0.0709 | 0.0703 | 0.0494 |  | 0.0821 |  |
| K100Q | 0.0477 |  |  |  | 0.0587 | 0.0493 | 0.0843 | 0.0631 | 0.0719 |  |
| K100D | 0.0581 |  |  | 0.074 | 0.071 | 0.067 | 0.0525 | 0.0742 |  | 0.0549 |
| I85A | 0.0556 |  |  | 0.0604 |  |  |  |  | 0.0462 | 0.0541 |
| R81A | 0.0459 | 0.0507 | 0.0547 | 0.0528 | 0.0619 | 0.0617 | 0.051 |  | 0.06 |  |
| R81P | 0.0533 |  |  |  | 0.0753 |  |  |  |  |  |
| G35T | 0.0452 | 0.0144 |  |  | 0.0489 |  | 0.0395 | 0.058 | 0.043 |  |
| G35A | 0.0487 |  |  | 0.0541 | 0.0553 | 0.0522 |  |  |  |  |
| G35V | 0.0419 |  |  | 0.0374 | 0.0503 |  | 0.0366 | 0.038 |  | 0.05 |
| L77R | 0.0597 | 0.0492 |  | 0.0793 | 0.0658 | 0.0571 | 0.0661 | 0.0636 |  | 0.06 |
| R109T | 0.0618 |  |  |  | 0.0893 |  | 0.0566 |  | 0.0459 |  |
| V58G | 0.0387 |  |  |  |  |  |  |  | 0.0439 |  |
| V58S | 0.0498 |  | 0.055 |  |  |  | 0.0543 | 0.0613 | 0.0561 |  |
| K98V | 0.0538 | 0.0648 | 0.0514 | 0.079 | 0.0589 |  | 0.0547 | 0.0514 | 0.0641 |  |
| Q97W | 0.0457 | 0.0645 |  |  |  |  | 0.0483 |  |  |  |
| Q97D | 0.0432 | 0.0624 | 0.0473 |  | 0.0902 |  |  |  | 0.0894 |  |
| Q97E | 0.0591 |  |  |  |  |  |  |  | 0.0693 |  |
| R102N | 0.0454 |  |  |  |  |  |  |  |  |  |
| F101I | 0.0379 |  |  |  |  |  | 0.0526 |  |  |  |

| Variant | area with substrate ENLYFAS | area with substrate ENLYFCS | area with substrate ENLYFDS | area with substrate ENLYFES | area with substrate ENLYFFS | area with substrate ENLYFHS | area with substrate ENLYFIS | area with substrate ENLYFKS | area with substrate ENLYFMS | area with substrate ENLYFNS |
| --- | --- | --- | --- | --- | --- | --- | --- | --- | --- | --- |
| F101H | 0.0463 | 0.0451 |  |  |  |  |  | 0.0591 | 0.0511 | 0.0328 |
| F101E | 0.0458 |  |  | 0.055 |  |  | 0.0409 |  |  | 0.0424 |
| R87T | 0.0621 |  |  |  | 0.0627 | 0.0469 | 0.0471 | 0.0593 |  |  |
| R87V | 0.0575 |  |  | 0.0676 | 0.0475 |  | 0.0543 |  | 0.0748 |  |
| R87N | 0.0598 | 0.0477 |  | 0.0658 |  |  | 0.0406 |  |  |  |
| R87D | 0.0485 | 0.0583 | 0.0408 | 0.034 | 0.0657 |  | 0.048 |  | 0.0571 |  |
| V67G | 0.0774 |  |  | 0.053 | 0.0603 | 0.0494 | 0.046 | 0.0347 | 0.0478 | 0.0494 |
| T70F | 0.0738 | 0.0402 | 0.0523 |  |  |  | 0.051 | 0.0489 |  | 0.0573 |
| D91S | 0.0468 | 0.0577 |  |  |  |  | 0.0514 |  | 0.0657 |  |
| V113W | 0.0617 | 0.0505 |  |  |  |  | 0.058 |  |  | 0.064 |
| V57Q | 0.0453 | 0.0573 |  | 0.0669 | 0.0628 |  | 0.0484 |  | 0.0603 | 0.0671 |
| T114L | 0.0582 | 0.0562 | 0.0672 | 0.0754 |  |  | 0.0549 |  | 0.0582 | 0.0786 |
| R50Y | 0.0524 | 0.0658 |  |  | 0.049 | 0.0653 | 0.0633 | 0.0711 | 0.0873 |  |
| R50N | 0.0531 |  |  |  |  |  |  |  |  |  |
| R50W | 0.0676 |  | 0.0626 | 0.0677 | 0.042 |  | 0.065 |  | 0.0721 | 0.0602 |
| Q75D | 0.0501 | 0.0384 | 0.0831 |  | 0.0492 |  | 0.0577 |  | 0.0621 |  |
| Q75M | 0.0652 |  |  | 0.0504 |  |  | 0.0583 | 0.041 | 0.0658 | 0.0498 |
| N116V | 0.0618 | 0.0623 | 0.067 | 0.0644 |  |  | 0.0431 | 0.0648 | 0.0446 |  |
| F65P | 0.0503 |  | 0.0384 | 0.0221 | 0.0428 | 0.0511 | 0.0366 | 0.0514 |  | 0.0419 |
| F65Q | 0.0568 | 0.0595 |  |  |  |  | 0.0505 |  | 0.0862 |  |

Same assay, conditions: temperature: 34 °C; time window: 0-4 h after rhamnose induction

| Variant | area with substrate ENLYFPS | area with substrate ENLYFSS | area with substrate ENLYFTS | area with substrate ENLYFVS | area with substrate ENLYFWS | area with substrate ENLYFGS | area with substrate ENLYFLS | area with substrate ENLYFRS | area with substrate ENLYFYS |
| --- | --- | --- | --- | --- | --- | --- | --- | --- | --- |
| T115Q | 0.0548 | 0.057 | 0.0645 | 0.0521 | 0.0667 |  |  |  |  |
| T115R | 0.0632 |  |  |  |  | 0.0697 | 0.0456 | 0.0637 |  |
| K100Q | 0.0677 |  |  |  |  |  |  |  | 0.056 |
| K100D | 0.0787 |  |  | 0.0727 | 0.0584 |  |  |  | 0.0632 |
| I85A |  | 0.0588 | 0.03 |  |  |  |  | 0.0624 |  |
| R81A | 0.0622 | 0.0611 | 0.0454 |  | 0.0631 |  |  | 0.0619 |  |
| R81P | 0.0514 |  | 0.0446 |  |  |  |  |  |  |
| G35T | 0.0406 |  | 0.0571 | 0.0443 |  |  |  | 0.0468 | 0.0306 |
| G35A | 0.0319 |  |  | 0.0311 |  | 0.0576 | 0.0712 |  |  |
| G35V |  |  | 0.0344 |  |  |  |  |  |  |
| L77R |  | 0.0653 |  |  | 0.0469 |  |  |  | 0.0589 |
| R109T | 0.0621 | 0.0607 | 0.0581 | 0.0467 |  | 0.0376 |  |  | 0.061 |
| V58G |  |  |  |  |  | 0.0549 |  |  | 0.0409 |
| V58S |  | 0.0542 |  | 0.0274 | 0.0386 | 0.0602 | 0.0458 |  |  |
| K98V | 0.0684 |  | 0.0685 |  | 0.0495 |  |  |  |  |
| Q97W | 0.0629 | 0.0628 |  |  |  |  | 0.0673 |  |  |
| Q97D |  |  |  | 0.0493 |  |  |  |  |  |
| Q97E | 0.0575 |  | 0.0424 | 0.0598 |  |  |  |  |  |
| R102N | 0.0631 | 0.0592 |  |  |  |  |  |  |  |
| F101I |  |  |  | 0.0582 |  |  |  | 0.0347 |  |

| Variant | area with substrate ENLYFPS | area with substrate ENLYFSS | area with substrate ENLYFTS | area with substrate ENLYFVS | area with substrate ENLYFWS | area with substrate ENLYFGS | area with substrate ENLYFLS | area with substrate ENLYFRS | area with substrate ENLYFYS |
| --- | --- | --- | --- | --- | --- | --- | --- | --- | --- |
| F101H | 0.0511 |  | 0.0408 |  | 0.0397 | 0.0606 |  |  | 0.0475 |
| F101E |  | 0.0417 | 0.0489 |  |  | 0.0464 |  |  |  |
| R87T |  |  | 0.0809 | 0.0137 |  |  |  |  |  |
| R87V | 0.0758 |  |  |  |  |  |  |  |  |
| R87N | 0.0507 |  |  |  |  |  |  |  |  |
| R87D | 0.0565 |  | 0.0577 |  |  |  |  |  |  |
| V67G |  |  |  |  | 0.0535 |  |  | 0.0404 |  |
| T70F | 0.0828 | 0.0366 |  |  |  |  |  |  |  |
| D91S | 0.0704 |  |  |  |  |  | 0.0509 |  |  |
| V113W | 0.0786 | 0.0533 | 0.0617 | 0.0633 |  |  |  | 0.067 | 0.0609 |
| V57Q |  | 0.0582 |  |  | 0.0247 |  |  |  | 0.055 |
| T114L | 0.0645 | 0.0621 |  |  |  |  | 0.0452 |  | 0.0506 |
| R50Y |  |  | 0.0365 | 0.0397 |  | 0.0807 | 0.055 |  | 0.0527 |
| R50W | 0.0622 |  | 0.0406 |  | 0.0571 | 0.0617 |  | 0.0538 | 0.0621 |
| Q75D | 0.054 |  | 0.0582 |  | 0.0498 |  |  | 0.0591 |  |
| Q75M | 0.0573 |  |  |  |  |  |  |  | 0.0678 |
| N116V | 0.0583 |  |  | 0.051 | 0.0561 |  |  |  | 0.046 |
| F65P | 0.06 | 0.0526 | 0.0625 | 0.041 |  |  |  | 0.0395 | 0.0373 |
| F65Q |  | 0.0669 | 0.058 |  |  | 0.0625 |  | 0.0609 |  |
